This note sets out measurements from PubChem BioAssay AID1963576 (National Center for Advancing Translational Sciences (NCATS), 2024).

In all, about 46,000 compounds went through this assay and about 60 (0.1%) were called active. Roughly 3% stayed inconclusive and do not appear here. The call rests on the fitted dose curve; in most records, active means well fitted inhibition curve with a large enough effect; inconclusive means small, poorly fitted or top-dose-only effect; inactive means no such curve, though single readings can be large or run the other way. The list shows a part of the results.

The nature of this assay: Primary qHTS assay for Inhibitors of ovarian cancer metastasis using an organotypic tumor microenvironment (TME) model. Further: nearly all actives have a fitted effect of over 65% in size.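 On activity change, negative = inhibition: plate controls were DMSO wells for no effect and tomatine positive control wells for full effect.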 The note with it: SKOV3ip1-GFP adhesion/invasion on 3D omental model, fluorescence; series mostly up to 45.8 µM; activity change, negative = inhibition: at the top concentration. The procedure, abridged:
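Primary human omental fibroblast/mesothelial 3D culture pre-formed 48 h. SKOV3ip1-GFP cells added with compounds (0.36-46 umol/L), incubated 2 h RT/16 h 37 C, fixed; GFP cells quantified at 488/509 nm.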
Background: Quantitative high-throughput screening tests each substance at several concentrations.
With `Cc1ccc(CNC(=O)NCc2noc3ccc(C)cc23)cc1`, the “activity change, negative = inhibition” value is inactive: 5.7%.
Turning to `COc1ccc(C(=O)NCCn2cc(SCC(=O)Nc3ccc(C)cc3)c3ccccc32)cc1`, the “activity change, negative = inhibition” value was inactive: 3%.
As to `COc1ccc(C)cc1NC(=O)c1ccc2c(=O)n3c(nc2c1)CCCCC3`, the “activity change, negative = inhibition” value is inactive: -1.96%.
For `CCOc1ccc(OCC)c(NS(=O)(=O)c2cc(-c3cnc(C)o3)ccc2OC)c1`, the result was inactive.
In the case of `COc1ccc(-c2cc(C)no2)cc1S(=O)(=O)Nc1c(C)cc(C)cc1C`, the “activity change, negative = inhibition” value was inactive: -16.4%.
On the same count and under the same terms, as for `Cc1ccc(Cn2c(CNS(=O)(=O)c3cccc([N+](=O)[O-])c3)nc3cccnc32)cc1`, the figure is inactive: 4.69%; as for `COc1ccc(OC)c(CNC(=O)c2ccc(C)c(NC(=O)c3nsc4ccccc34)c2)c1`, inactive: 4.88%.
On to `CCCCNC(=O)C1CCN(S(=O)(=O)CCC)CC1`, for which the “activity change, negative = inhibition” value is inactive: -16.7%.
Take `COc1ccc(-c2c(C)c3ccc(O)c(CN4CCOCC4)c3oc2=O)cc1`: the “activity change, negative = inhibition” value is inactive: 4.94%.
With `CCn1c2ccccc2c2cc(NC(=O)COc3ccc(C)cc3C)ccc21`, the molecule was called inactive.
In the case of `COC(=O)c1cc2sc(Cl)cc2n1Cc1c(C)cc(C)cc1C`, the “activity change, negative = inhibition” value was inactive: 9.27%.
For the molecule `CCOC(=O)C1CCN(C(c2ccc(SC)cc2)c2c(O)cc(C)n(Cc3ccco3)c2=O)CC1` (configuration not stated), the “activity change, negative = inhibition” value is inactive: 1.17%.
Consider `COc1cc(C2NC(=O)c3c(sc4c3CCN(C)C4)N2)cc(Br)c1OC(=O)c1ccc(C)cc1` (configuration not stated), for which the “activity change, negative = inhibition” value is inactive: -2.27%.
With `COCCNC(=O)Nc1cc(C(=O)NCc2ccc(C(C)C)cc2)ccc1N1CCCC1`, the “activity change, negative = inhibition” value was inactive: 11.7%.
As for `CCc1cccc(C)c1NC(=O)Cn1cnc2c1c(=O)n(C)c(=O)n2C`, the molecule was called inactive.
Consider `Cc1ccccc1-n1nc(CO)c(C(=O)NCc2cccnc2)n1`, for which the molecule was classed as inactive.
For `CCc1nn2c(=O)cc(COC(=O)c3cccc(NC(=O)c4cccs4)c3)nc2s1`, the call was inactive.
As for `CCOC(=O)c1c(-c2ccccc2)csc1NC(=O)c1cc(=O)c2ccc(C)cc2o1`, the outcome was inactive.
Consider `Cc1nc2nncn2c(Nc2ccccc2)c1C`, for which the outcome was inactive.
On to `Cc1ccc(NC(=O)C2CCN(S(=O)(=O)c3ccc4[nH]c5c(c4c3)CCCCC5)CC2)cc1`, for which the molecule was called inactive.
For `COc1ccccc1N1CCN(c2ncnc3onc(-c4ccc(F)cc4)c23)CC1`, the “activity change, negative = inhibition” value was inactive: -5.97%.
In the case of `Cc1cccc(NC(=O)CCS(=O)(=O)c2cccc3nsnc23)c1C`, the “activity change, negative = inhibition” value is inactive: 4.59%.
Consider `COc1cccc(C(=O)NCCc2csc(-c3ccc(Cl)cc3)n2)c1`, for which the “activity change, negative = inhibition” value is inactive: -7.24%.
Regarding `COc1ccc(N2CCN(C(=O)CCn3c(=O)[nH]c4cc(OC)c(OC)cc4c3=O)CC2)cc1`, the call was inactive.
As for `CCc1ccc(CNC(=O)C(C)n2ccc3cc(S(=O)(=O)N4CCCCCC4)ccc32)cc1` (configuration not stated), the “activity change, negative = inhibition” value was inactive: 2.75%.
Consider `COC(=O)c1c(NC(=O)CCCOc2ccc(C(C)(C)C)cc2)sc2c1C(C(=O)OC)CC2` (configuration not stated), for which the “activity change, negative = inhibition” value was inactive: 3.14%.
As to `CC1CN(C(=O)N2CCC(C(=O)NCc3cccs3)CC2)c2cc(Cl)ccc2O1` (configuration not stated), the “activity change, negative = inhibition” value is inactive: 0.176%.
